From PMC4336329 (PLoS ONE, 2015) come the findings set out here.

Structures are written as SMILES. The campaign covered roughly 310,000 compounds. About 2,200 (0.71%) showed an effect of 50% or more. The effect is printed as a negative number. Some of the results follow.

For this assay, the target named is human ether-à-go-go-related gene (hERG) potassium channel (human, UniProt Q12809). In words: primary screen, population patch clamp on CHO cells stably expressing hERG.
Chain of human ether-à-go-go-related gene (hERG) potassium channel (Q12809 whole entry, looked up): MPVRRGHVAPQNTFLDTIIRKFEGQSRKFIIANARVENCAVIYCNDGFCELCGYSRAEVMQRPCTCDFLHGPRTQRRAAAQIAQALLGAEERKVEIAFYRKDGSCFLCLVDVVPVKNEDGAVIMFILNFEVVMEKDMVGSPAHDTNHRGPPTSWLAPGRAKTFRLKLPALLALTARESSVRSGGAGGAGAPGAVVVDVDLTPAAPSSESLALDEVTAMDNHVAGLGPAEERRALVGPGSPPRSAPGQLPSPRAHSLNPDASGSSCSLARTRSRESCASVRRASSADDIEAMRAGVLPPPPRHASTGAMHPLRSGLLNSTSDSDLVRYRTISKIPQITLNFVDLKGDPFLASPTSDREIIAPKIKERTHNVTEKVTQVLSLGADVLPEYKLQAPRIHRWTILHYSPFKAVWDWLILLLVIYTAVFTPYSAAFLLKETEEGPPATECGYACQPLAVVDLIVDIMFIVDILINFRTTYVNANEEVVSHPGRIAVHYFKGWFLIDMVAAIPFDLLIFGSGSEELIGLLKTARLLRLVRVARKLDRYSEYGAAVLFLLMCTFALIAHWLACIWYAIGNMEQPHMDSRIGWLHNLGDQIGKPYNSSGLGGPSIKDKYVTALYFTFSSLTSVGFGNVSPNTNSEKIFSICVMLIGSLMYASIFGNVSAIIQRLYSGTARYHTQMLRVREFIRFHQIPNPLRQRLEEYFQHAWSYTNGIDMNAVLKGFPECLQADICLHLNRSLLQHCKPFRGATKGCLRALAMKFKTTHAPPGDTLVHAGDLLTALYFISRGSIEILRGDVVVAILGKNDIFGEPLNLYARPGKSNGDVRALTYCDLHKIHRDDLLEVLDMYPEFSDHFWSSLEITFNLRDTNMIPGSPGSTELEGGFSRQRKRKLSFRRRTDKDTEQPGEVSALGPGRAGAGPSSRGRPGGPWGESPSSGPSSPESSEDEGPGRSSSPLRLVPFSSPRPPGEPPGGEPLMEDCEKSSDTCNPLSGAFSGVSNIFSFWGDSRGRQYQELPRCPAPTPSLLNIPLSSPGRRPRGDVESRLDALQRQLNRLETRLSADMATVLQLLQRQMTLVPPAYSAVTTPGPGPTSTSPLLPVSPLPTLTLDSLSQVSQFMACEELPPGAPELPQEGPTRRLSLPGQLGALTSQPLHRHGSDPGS
`COc1cc2c(cc1OC)C(C)N(C(=O)Nc1ccccc1)CC2` (stereo not shown): the “hERG current change (%, negative = inhibition) at 1uM” value was determined as 11.3%.
Next, `Cc1cc(Cl)ccc1OCCCC(=O)N1CCN(S(=O)(=O)c2ccccc2)CC1`: 8.09%; `CCC(=O)N1c2ccc(S(=O)(=O)NCc3ccccc3)cc2CC1C` (stereo not shown): 11.8%; `CCCCCn1c(=O)c(-c2nc3ccccc3[nH]2)c(O)c2ccccc21`: 12.8%.
Next, `COc1ccc(C=O)c(OC)c1`: 10.6%; `COc1cccc(C(=O)CSc2nnc(-c3cc(OC)c(OC)c(OC)c3)o2)c1`: 10.2%; `Cc1ccc(S(=O)(=O)CNC(=S)c2cccc(Cl)c2)cc1`: 12.2%.
Take `CCOC(=O)C1CCN(Cc2nnc(-c3cccc(Br)c3)o2)CC1`: the “hERG current change (%, negative = inhibition) at 1uM” value was 8.65%.
Next, `CCCCC(C(=O)NC1CCCC1)N(Cc1ccccc1)C(=O)c1snc(C(N)=O)c1N` (stereo not shown): 13.6%.
Next, `O=C(NC(=S)Nc1ccc(S(=O)(=O)Nc2ncccn2)cc1)c1ccc(Br)cc1`: 11%.
Next, `O=C(NNc1nccc(C(F)(F)F)n1)Nc1cccc(Cl)c1`: 9.72%.
In the case of `COCCn1c(N)c(N(Cc2ccccc2)C(=O)COc2ccccc2F)c(=O)[nH]c1=O`, the “hERG current change (%, negative = inhibition) at 1uM” value was determined as 11.5%.
Regarding `Cc1ccc(OCC(=O)N(C)CC(=O)Nc2ccccc2Cl)c([N+](=O)[O-])n1`, the “hERG current change (%, negative = inhibition) at 1uM” value is recorded as 5.77%.
Next, `CN(C)/C=N/c1nc(-c2ccc3c(c2)OCO3)cs1`: 7.92%; `CCSc1nc2ccccc2n1C(=O)/C=C\c1ccc(OC)c(OC)c1`: 5.43%; `FC(F)(F)c1nnc2ccc(N3CCN(c4ccccc4)CC3)nn12`: 11.3%.
For `CC(C)=CC(=O)OCC(=O)Nc1cccc([N+](=O)[O-])c1`, the “hERG current change (%, negative = inhibition) at 1uM” value worked out at 8.68%.
Next, `CCC(C)[C@H](NC(=O)NC1CCCc2ccccc21)C(=O)O` (stereo partly shown): 15.5%; `CCCn1cc(SCC(N)=O)c2ccccc21`: 0.261%.
Next, `COCCSc1ccccc1C(=O)N1CCC(Cc2ccccc2)CC1`: 6.17%.
Next, `O=[N+]([O-])c1ccc(C=Nc2cccc3ccccc23)s1`: 7.76%.
Take `COc1ccc(N2CCN(C(=O)c3ccccc3NS(=O)(=O)c3ccc(C)cc3)CC2)cc1`: the “hERG current change (%, negative = inhibition) at 1uM” value is recorded as 12%.
Consider `CCOc1ccc(CCNC(=O)Nc2ccccc2C)cc1OCC`, for which the “hERG current change (%, negative = inhibition) at 1uM” value stood at 8.99%.
For `CC(O)CNCc1ccc(-c2ccccc2)cc1.Cl` (stereo not shown), the “hERG current change (%, negative = inhibition) at 1uM” value stood at 8.01%.
Next, `COc1ccc(/C=C(/NC(=O)c2ccc(C)cc2)C(=O)N2CCCC2)cc1OC`: 2.88%.
